Our source for the switch fluorescence ratio values is the supplement of paper PMC10126150.

Sequences with one replicate were seen in a single cluster, so their values are uncertain.

For this data set, the system named is ATP. In words: switch fluorescence ratio, 500 uM ATP over buffer (Cy3 cluster intensity, sum of 5 cycles each) (fold (ratio)); higher = stronger signal-on switching upon ATP binding; sequences stand for … in TCGTCGGCAGCGTCAGATGTGTATAAGAGACAGTTTTTTTTTTTTTTTTTTTTTTTTT…TC. To be noted: aptamer strand: ATP DNA aptamer (quencher-CACCTGGGGGAGTATTGCGGAGGAAGG + anchor), 100 nM annealed; ATP concentration: 500 uM; one replicate. The procedure, abridged:
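The fluorescence ratio divides summed target-cycle Cy3 intensity by summed buffer-cycle Cy3 intensity for each cluster and is averaged per switch-domain sequence. Cy3-labelled switching-strand clusters on a modified Illumina MiSeq flow-cell were annealed to 100 nM quencher-labelled ATP aptamer, then imaged in selection buffer and again after 15 min with 500 uM ATP at 22 °C. Five such cycles were run, with NaOH stripping and re-annealing between them, and clusters outside 100-1000 RFU were excluded.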
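Note: ATP exposure 15 min at 22 °C before imaging.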

Take ATTATTGGA: the switch fluorescence ratio stood at 0.968. In the case of TACGGCGCAA, the switch fluorescence ratio came to 1.17. With TCTATCAAGG the figure was 0.981; with GACGGTAGCC, 1.09.

Take CCTAGATTGT: the switch fluorescence ratio was determined as 1.01. As for ATTACGTTAA, the figure is 1.25.

As to ACTCAGATCG, the switch fluorescence ratio worked out at 1.05.

Take CTGCGGGGGC: the switch fluorescence ratio was found to be 1.06. ATTATGTCTC: the switch fluorescence ratio was found to be 1.04. As for AGCGGCCGGA, the figure is 1.02. With TCTAGAATTT the figure was 1.02; with AGAATCTTA, 0.98. As for ACCAGCAGTA, the figure is 1.03. On to AGAACACCTG, for which the switch fluorescence ratio turned out to be 1.04. As to ATTTCCGAAC, the switch fluorescence ratio stood at 1.19.

On to TCTAAGGAAG, for which the switch fluorescence ratio is 1.01.

For the sequence CACCTCTAAG, the switch fluorescence ratio came out at 0.998. As for CAAGTTCATC, the switch fluorescence ratio was 1.01. Consider GTCATAAGGT, for which the switch fluorescence ratio was determined as 0.986. As to CCTCGACTTT, the switch fluorescence ratio worked out at 1.06. As for TCCACAGGCA, the figure is 1.12. As for GCACGACGG, the figure is 1.08; as for AGAATTCAGT, 0.966; as for GGAATTTACC, 1.02. Consider TGTATACTGA, for which the switch fluorescence ratio turned out to be 1.02. As for CACAGGATGA, the figure is 1.01; as for TCTTTCCTTA, 1.02. TTCTGTGCCG: the switch fluorescence ratio was 0.996. For TGGTTGGAG, the switch fluorescence ratio came out at 1.2. In the case of CTTGTGCGTG, the switch fluorescence ratio came to 0.982. With GTTCGGTTTC the figure was 0.968; with TCTAGCACTT, 1.02. With TTAAAATAAG the figure was 1.04; with AGGGGTGACA, 1; with TGACCTTTCC, 3.28. With GTCCCAGAAA, the switch fluorescence ratio was 1.03. GAACTTCTTC: the switch fluorescence ratio came out at 1.04. On to TTTCGTCGGG, for which the switch fluorescence ratio worked out at 1.06. As to GAGGAAGATG, the switch fluorescence ratio was determined as 0.951.

Take TGATTCTCTA: the switch fluorescence ratio is 0.974.

Regarding TAATACTTGG, the switch fluorescence ratio came out at 1.05.

On to CGCATTGTCC, for which the switch fluorescence ratio was found to be 2.64.

GGCTATACTT: the switch fluorescence ratio is 1.25. As for CCATTAATAC, the figure is 3.88; as for AAAAGTTCGG, 1.04; as for AATTGTATTC, 1.07. With ATCCCAACCT the figure was 1.66; with CTCCCTTTGT, 1.02.

Consider ACATGGTCGT, for which the switch fluorescence ratio stood at 1.02. For the sequence GAGGTGCGGA, the switch fluorescence ratio worked out at 0.947. In the case of AGGCCCAACG, the switch fluorescence ratio worked out at 1. As for TAAAAGTAT, the figure is 1.01; as for ATCATAGGAG, 0.975; as for TATAGATTT, 0.996. As for ATGCGATGCG, the figure is 1.05. As for TTTTGTGC, the switch fluorescence ratio came to 1.

On to CAGCGAATGT, for which the switch fluorescence ratio is 1.02. CCACTCGTCA: the switch fluorescence ratio worked out at 1.08. As for ACTTGGATCC, the figure is 1.01; as for ATTGAAGTAG, 1.02; as for AGACTTGGG, 0.995.

For the sequence AGCGGGCAAA, the switch fluorescence ratio is 1.09. Consider CTAGGAGATT, for which the switch fluorescence ratio is 1. Turning to ACCCTTCTTT, the switch fluorescence ratio was determined as 1.53.

On to AGTTTTCGA, for which the switch fluorescence ratio came to 0.995. As for ACGGCGCGGA, the figure is 1.04; as for GTGATCCTTG, 1.
